No constants are given. Whether binding was seen depends on the method and setting. Some results given as binding are weak or reduced against the parent protein; the word gives no strength.
Legend:
Experiment in all cases: peptide or protein array; Invitrogen Protoarray v4.0, about 8,400 human proteins spotted on nitrocellulose-coated glass slides; 10 µg biotinylated tag-free NEMO in 120 µl probing buffer (PBS, 0.5 mM DTT, 5 mM MgCl2, 5% glycerol, 0.05% Triton X-100), 4°C, 1.5 h; bound NEMO detected with labelled streptavidin; hits Z-score > 3, hits of the biotin-GST control array subtracted; both purified
PNMA-like 1 (human) = target: T1, PNMA-like 1 (human) (UniProt Q86V59)
T1 sequence: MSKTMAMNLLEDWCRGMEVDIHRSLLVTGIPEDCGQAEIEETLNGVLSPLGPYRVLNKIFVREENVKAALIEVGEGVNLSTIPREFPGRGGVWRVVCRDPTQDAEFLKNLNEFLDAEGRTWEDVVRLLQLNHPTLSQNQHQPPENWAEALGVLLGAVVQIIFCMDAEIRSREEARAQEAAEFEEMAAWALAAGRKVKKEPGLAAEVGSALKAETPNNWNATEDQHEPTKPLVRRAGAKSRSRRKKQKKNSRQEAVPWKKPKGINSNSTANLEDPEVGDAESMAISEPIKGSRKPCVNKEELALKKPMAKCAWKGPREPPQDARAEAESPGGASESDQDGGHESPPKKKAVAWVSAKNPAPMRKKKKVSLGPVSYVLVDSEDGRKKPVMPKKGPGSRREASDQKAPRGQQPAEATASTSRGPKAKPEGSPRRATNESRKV

Amino acid sequences for entries named in this document (tags omitted).
UniProt P53355: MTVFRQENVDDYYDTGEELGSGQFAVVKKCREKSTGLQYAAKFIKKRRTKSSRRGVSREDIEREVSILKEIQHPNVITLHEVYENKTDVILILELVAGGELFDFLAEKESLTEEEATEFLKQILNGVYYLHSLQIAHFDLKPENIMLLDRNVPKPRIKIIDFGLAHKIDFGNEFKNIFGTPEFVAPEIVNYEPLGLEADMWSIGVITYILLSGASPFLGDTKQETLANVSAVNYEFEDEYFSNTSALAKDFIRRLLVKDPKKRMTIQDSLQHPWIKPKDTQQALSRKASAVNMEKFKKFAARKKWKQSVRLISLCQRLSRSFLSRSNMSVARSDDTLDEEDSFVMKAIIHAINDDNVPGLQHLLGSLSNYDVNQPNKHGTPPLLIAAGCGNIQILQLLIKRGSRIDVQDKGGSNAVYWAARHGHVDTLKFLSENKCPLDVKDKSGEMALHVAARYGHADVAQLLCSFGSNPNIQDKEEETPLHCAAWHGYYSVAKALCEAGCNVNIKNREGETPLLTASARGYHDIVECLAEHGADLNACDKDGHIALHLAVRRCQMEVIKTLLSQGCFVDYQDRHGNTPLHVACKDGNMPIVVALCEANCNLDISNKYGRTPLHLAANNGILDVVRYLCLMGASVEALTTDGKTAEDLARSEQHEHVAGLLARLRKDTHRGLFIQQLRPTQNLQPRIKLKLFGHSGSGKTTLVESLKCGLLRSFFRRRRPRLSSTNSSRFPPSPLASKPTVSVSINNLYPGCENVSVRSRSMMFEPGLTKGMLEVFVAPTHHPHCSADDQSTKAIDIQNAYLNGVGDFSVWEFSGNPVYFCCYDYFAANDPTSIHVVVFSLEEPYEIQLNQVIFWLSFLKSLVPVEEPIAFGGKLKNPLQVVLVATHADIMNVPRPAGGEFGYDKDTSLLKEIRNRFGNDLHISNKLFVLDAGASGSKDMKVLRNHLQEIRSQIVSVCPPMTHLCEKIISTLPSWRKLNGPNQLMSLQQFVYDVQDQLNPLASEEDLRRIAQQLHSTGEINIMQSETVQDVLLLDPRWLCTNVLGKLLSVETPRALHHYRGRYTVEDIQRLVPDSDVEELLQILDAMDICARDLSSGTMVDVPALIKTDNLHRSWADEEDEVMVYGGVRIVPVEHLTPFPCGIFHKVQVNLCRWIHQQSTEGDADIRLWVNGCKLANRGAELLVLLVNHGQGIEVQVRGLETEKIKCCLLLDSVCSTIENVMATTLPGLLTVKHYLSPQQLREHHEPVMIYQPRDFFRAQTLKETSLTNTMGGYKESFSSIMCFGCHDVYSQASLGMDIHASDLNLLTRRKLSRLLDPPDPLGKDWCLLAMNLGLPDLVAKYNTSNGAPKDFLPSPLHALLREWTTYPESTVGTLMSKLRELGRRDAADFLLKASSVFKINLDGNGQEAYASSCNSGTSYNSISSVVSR
UniProt P33993: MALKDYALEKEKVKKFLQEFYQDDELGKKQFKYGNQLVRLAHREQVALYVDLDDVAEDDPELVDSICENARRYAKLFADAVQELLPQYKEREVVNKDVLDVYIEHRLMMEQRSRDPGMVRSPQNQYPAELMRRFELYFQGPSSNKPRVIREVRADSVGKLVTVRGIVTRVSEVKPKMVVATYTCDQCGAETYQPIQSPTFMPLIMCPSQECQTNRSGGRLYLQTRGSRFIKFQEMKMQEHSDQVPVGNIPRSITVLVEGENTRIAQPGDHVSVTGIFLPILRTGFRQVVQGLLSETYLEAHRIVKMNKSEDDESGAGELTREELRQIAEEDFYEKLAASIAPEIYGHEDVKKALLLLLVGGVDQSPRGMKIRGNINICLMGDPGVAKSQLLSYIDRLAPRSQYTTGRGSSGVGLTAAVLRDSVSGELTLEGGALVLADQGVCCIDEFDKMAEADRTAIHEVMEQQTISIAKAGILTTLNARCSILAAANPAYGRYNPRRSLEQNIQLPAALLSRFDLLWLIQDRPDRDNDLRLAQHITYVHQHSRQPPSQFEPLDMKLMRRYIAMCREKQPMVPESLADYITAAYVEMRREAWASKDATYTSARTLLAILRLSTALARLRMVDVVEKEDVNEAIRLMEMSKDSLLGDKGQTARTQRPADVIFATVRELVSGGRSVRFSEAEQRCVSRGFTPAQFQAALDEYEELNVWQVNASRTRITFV
UniProt Q9H6T3: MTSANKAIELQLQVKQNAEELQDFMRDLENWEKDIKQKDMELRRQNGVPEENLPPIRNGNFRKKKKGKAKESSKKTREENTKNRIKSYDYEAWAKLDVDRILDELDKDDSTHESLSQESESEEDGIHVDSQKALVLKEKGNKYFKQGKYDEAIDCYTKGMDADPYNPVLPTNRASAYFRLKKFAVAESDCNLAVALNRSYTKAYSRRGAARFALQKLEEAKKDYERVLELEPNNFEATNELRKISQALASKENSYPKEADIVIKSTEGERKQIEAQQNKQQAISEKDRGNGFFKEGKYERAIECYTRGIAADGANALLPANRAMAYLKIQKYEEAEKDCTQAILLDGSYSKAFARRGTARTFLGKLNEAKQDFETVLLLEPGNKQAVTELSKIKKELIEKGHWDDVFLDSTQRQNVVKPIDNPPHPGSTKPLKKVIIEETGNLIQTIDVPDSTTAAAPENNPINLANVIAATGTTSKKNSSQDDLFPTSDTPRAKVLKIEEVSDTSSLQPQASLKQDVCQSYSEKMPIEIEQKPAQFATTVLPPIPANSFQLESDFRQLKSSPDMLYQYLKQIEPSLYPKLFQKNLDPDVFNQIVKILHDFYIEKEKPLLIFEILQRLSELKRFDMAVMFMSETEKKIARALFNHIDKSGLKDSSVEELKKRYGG

[1] = target: T2, TFS2-M domain-containing protein 1 (human) (UniProt Q8N8B7)
T2 sequence: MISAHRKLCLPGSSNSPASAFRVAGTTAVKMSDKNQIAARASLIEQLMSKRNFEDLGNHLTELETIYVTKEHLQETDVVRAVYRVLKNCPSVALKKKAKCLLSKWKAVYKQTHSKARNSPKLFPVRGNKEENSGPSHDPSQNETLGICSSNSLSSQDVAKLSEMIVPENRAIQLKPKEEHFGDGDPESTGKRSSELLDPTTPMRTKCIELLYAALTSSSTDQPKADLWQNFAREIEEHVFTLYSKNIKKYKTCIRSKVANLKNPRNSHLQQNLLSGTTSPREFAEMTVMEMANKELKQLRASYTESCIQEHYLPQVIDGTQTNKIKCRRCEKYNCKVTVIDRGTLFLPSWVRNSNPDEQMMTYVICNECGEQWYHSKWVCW

[2] = target: Death-associated protein kinase 1 (human) (UniProt P53355)
[3] = target: MCM7 minichromosome maintenance deficient 7 (human) (UniProt P33993)
[4] = target: RNA polymerase II associated protein 3 (human) (UniProt Q9H6T3)
[5] = target: T3, Tripartite motif-containing 41 (human) (UniProt Q8WV44)
T3 sequence: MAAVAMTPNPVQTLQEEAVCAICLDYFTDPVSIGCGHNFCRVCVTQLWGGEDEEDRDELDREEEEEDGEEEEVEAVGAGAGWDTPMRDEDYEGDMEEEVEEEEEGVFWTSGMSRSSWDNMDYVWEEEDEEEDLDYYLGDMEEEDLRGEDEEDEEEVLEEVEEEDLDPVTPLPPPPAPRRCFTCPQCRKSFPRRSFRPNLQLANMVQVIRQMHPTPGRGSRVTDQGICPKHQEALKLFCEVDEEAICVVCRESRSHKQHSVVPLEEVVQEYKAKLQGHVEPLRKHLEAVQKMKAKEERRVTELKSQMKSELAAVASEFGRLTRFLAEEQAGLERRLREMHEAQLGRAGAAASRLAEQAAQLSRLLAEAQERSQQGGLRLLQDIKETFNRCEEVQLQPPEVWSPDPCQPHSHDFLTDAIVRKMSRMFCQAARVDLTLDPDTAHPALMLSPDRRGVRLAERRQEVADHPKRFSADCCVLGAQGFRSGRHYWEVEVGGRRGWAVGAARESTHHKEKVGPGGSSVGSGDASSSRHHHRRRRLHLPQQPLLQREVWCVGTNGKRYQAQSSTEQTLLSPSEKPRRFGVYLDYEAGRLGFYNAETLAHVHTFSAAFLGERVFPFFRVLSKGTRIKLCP

[6] = target: T4, Lectin, galactoside-binding, soluble, 2 (galectin 2) (human) (UniProt P05162)
T4 sequence: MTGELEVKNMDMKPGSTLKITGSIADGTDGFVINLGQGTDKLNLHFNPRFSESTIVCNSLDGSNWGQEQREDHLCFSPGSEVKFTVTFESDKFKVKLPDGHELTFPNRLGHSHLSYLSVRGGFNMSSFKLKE

Measured: binding

NEMO (NF-κB essential modulator), tag-free, biotinylated (from UniProt Q9Y6K9 1-419)
binds: all assays above
